# About 14,000 (4.5%) of roughly 310,000 compounds showed an effect of 50% or more. The effect is printed as a negative number. The list shows a part of the results.
# Biological target: human ether-à-go-go-related gene (hERG) potassium channel (human, UniProt Q12809)
# Experiment: primary screen, population patch clamp on CHO cells stably expressing hERG
# 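Note: peak tail current of the secondary pulse compared with the same well before compound.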
# Chain of human ether-à-go-go-related gene (hERG) potassium channel (Q12809 whole entry, looked up): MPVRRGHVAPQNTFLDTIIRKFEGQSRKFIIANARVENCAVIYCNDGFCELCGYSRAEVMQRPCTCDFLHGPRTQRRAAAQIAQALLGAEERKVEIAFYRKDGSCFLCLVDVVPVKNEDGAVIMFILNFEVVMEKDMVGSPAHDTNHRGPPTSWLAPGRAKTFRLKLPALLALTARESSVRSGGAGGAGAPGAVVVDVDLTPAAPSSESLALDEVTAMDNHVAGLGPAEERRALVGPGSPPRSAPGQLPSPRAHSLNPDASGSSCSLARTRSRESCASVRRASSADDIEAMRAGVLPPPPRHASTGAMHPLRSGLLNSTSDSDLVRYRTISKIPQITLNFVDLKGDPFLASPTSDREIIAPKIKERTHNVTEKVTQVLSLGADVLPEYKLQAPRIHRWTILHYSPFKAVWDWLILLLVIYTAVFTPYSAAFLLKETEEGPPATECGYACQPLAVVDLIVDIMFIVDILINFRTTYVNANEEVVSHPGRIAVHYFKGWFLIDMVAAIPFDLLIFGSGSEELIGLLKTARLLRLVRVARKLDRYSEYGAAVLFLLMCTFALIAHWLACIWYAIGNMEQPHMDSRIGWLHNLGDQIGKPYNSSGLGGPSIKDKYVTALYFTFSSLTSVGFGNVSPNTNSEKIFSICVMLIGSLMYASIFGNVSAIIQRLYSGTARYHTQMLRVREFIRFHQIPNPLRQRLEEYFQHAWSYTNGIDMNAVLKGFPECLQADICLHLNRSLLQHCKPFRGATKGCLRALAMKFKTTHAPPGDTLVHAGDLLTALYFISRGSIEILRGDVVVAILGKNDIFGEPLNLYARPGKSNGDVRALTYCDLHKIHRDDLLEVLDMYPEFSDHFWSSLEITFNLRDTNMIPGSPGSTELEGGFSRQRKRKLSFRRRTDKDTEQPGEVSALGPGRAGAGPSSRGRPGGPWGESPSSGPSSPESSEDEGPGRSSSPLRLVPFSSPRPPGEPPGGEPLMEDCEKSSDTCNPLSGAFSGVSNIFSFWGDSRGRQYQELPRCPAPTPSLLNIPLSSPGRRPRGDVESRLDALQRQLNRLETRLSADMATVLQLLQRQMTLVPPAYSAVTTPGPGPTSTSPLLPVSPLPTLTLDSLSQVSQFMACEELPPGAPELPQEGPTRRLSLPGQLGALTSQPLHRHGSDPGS
row,SMILES,"hERG current change (%, negative = inhibition) at 10uM"
1,O=C(Cc1csc(N2CCOCC2)n1)N/N=C/c1ccc(F)cc1,-7.15%
2,C[C@H](NC(N)=O)C(=O)OCC(=O)Nc1ccc(OC(F)F)cc1,-11%
3,O=C(CCn1nnc2ccccc21)NNC(=O)C1CCCCC1,20.6%
4,CCn1c(SCc2nc(-c3ccc(OC)c(OC)c3)no2)nnc1-c1cccs1,-40.1%
5,CN(C)c1ccc(-c2noc(-c3ccccc3O)n2)cc1,2.46%
6,CCCCn1c(N)c(N(CC)C(=O)c2cccc(S(=O)(=O)N3CCCc4ccccc43)c2)c(=O)[nH]c1=O,6.63%
7,COC(=O)c1sc(SC)c2c1CC(C)(C)C/C2=N/O,10.6%
8,COC(=O)Cn1c2c(c3cc(C)ccc31)CCCC2,-4.61%
9,CC(=O)C1=C(C)NC(SCC(N)=O)=C(C#N)C1c1sccc1C (stereo not drawn),0.306%
10,O=C(c1cccc(S(=O)(=O)N2CCOCC2)c1)N1CCN(S(=O)(=O)c2cccs2)CC1,5.04%
11,O=C(OCC(=O)N1CCOCC1)c1cnc(Cl)c(Cl)c1,4.08%
12,Cc1onc(-c2ccccc2Cl)c1C(=O)OCc1cnc(Cl)s1,-4.98%
13,NC(=S)N/N=C/c1cccc(O)c1O,29.3%
14,COc1ccc(CCNC(=O)c2cccc(S(=O)(=O)N3CCCCC3)c2)cc1,-14.9%
15,CC(=O)OC(C(=O)NCS(=O)(=O)c1ccc(C)cc1)c1cccnc1 (stereo not drawn),21.7%
16,CC(NC(=O)CSc1ncnc2nc[nH]c12)c1ccccc1 (stereo not drawn),18.6%
17,Cc1ccc(N2CC(C(=O)Nc3c4c(nn3C(C)(C)C)CS(=O)(=O)C4)CC2=O)cc1C (stereo not drawn),-4.5%
18,CC(=O)Nc1ccc(NC(=O)c2ccc(Cl)nc2)cc1,-4.1%
19,Cc1oc(C(C)(C)C)cc1C(=O)N1CCN(c2ccc(C(F)(F)F)cn2)CC1,-5.33%
20,COc1ccc(/C=C/C(=O)c2cc(Br)ccc2OC(=O)c2ccco2)cc1OC,13.5%
21,CN(C)C(=O)COC(=O)/C=C/c1ccccc1[N+](=O)[O-],13.9%
22,CCOc1cc(/C=C2/C(=O)N(c3ccccc3)N=C2C)ccc1OC(=O)c1cccs1,0.718%

row,SMILES,"hERG current change (%, negative = inhibition) at 10uM"
1,Cc1cc(CN(C)C(=O)CC2C(=O)NCCN2CC(c2ccccc2)c2ccccc2)on1 (stereo not drawn),-24.1%
2,O=C(CSc1nncs1)N1CCN(C(=O)c2ccco2)CC1,5.31%
3,Cc1ccccc1NC(=S)N1CCCN(Cc2ccc(F)cc2)C1,-9.49%
4,COc1ccc(S(=O)(=O)N2CCC(C(=O)NCCC(=O)NCc3ccccc3OC)CC2)cc1,-7.42%
5,CC(C)Oc1cccc(C(=O)Nc2ccc(NC(=O)c3ccco3)cc2)c1,6.06%
6,N#Cc1c(N)nc2c(c1-c1ccc(F)cc1)c(=O)nc1sccn12,36.5%
7,O=C(Nn1c(O)c(C=C2N=c3ccccc3=N2)sc1=S)c1ccc(Cl)cc1,6.92%
8,O=C(c1cccc(C(=O)N2CCN(c3ccc(F)cc3)CC2)c1)N1CCN(c2ccc(F)cc2)CC1,-72.5%
9,OCCC1CN(Cc2ccon2)CCN1Cc1ccc(F)c(F)c1 (stereo not drawn),-13.9%
10,COc1ccccc1NC(=O)C(NC(=O)c1ccc(C)cc1)c1ccccc1 (stereo not drawn),15.2%
11,CCOc1cccc(N(C(=O)Cc2cccs2)C(C(=O)NC2CCCCC2)c2cccn2C)c1 (stereo not drawn),-5.98%
12,CCOc1ccc(CN(C(=O)c2cc3ccccc3oc2=O)C2CCS(=O)(=O)C2)cc1 (stereo not drawn),-40.4%
13,CC(C)(C)P(=O)(N1CCOCC1)N1CCOCC1,24.1%
14,CN(C)c1nc(-c2cccnc2)nc(-c2ccccc2)c1C#N,10.3%
15,O=C(O)c1cccc(S(=O)(=O)Nc2cccc3ccccc23)c1,16.5%
16,COc1cc2nc(CSc3nc(-c4ccc(F)cc4)cs3)[nH]c(=O)c2cc1OC,3.36%
17,COc1cc(/C=N/NS(=O)(=O)c2ccc(Br)cc2)ccc1O,1.58%
18,C=CCNS(=O)(=O)c1ccc(OC)c(C)c1,3.59%
19,CCCCN1C(=O)C(O)=C(C(C)=O)C1c1ccccc1[N+](=O)[O-] (stereo not drawn),8.06%
20,O=C(NN1C(=O)c2ccccc2NC12CCCCC2)c1ccccc1,-7.42%
21,COc1ccc(N(CC(=O)Nc2cc(C)ccc2C)S(=O)(=O)c2c(C)nn(C)c2C)cc1,1.59%
22,O=C(CCCN1C(=O)c2ccccc2C1=O)Nc1ccc2c(c1)OCCO2,12.1%

row,SMILES,"hERG current change (%, negative = inhibition) at 10uM"
1,COC(=O)c1cc(S(=O)(=O)N2CCCCC2C)c[nH]1 (stereo not drawn),2.86%
2,Cc1ccc2c(c1)-c1c(cnn1CC(=O)N(Cc1ccco1)C1CCCCC1)CO2,-13%
3,Cc1ccc(NCc2n[nH]c(=S)n2-c2ccccc2)c(C)c1,-0.413%
4,COc1ccc(-c2ocnc2C(=O)Nc2ccc3c(c2)CCC3)cc1,8.64%
5,O=C(N/N=C/c1ccc(O)cc1O)/C(=C/c1ccccc1)CCO,-15%
6,CC(=O)N/C(=C\c1ccc(F)cc1)C(=O)NC(C(=O)O)C(C)C (stereo not drawn),13.2%
7,CCOC(=O)C1CCN(C(=O)c2cc3cc4cc(OC)ccc4nc3o2)CC1,-31.7%
8,COc1ccc(CCN(C)CC(O)COC(c2ccc(F)cc2)c2ccc(F)cc2)cc1OC (stereo not drawn),-79.2%
9,Cn1c(=O)[nH]c(=O)c2c1nc(SCC(=O)O)n2CCc1ccccc1,23.7%
10,O=C(c1ccc(NS(=O)(=O)c2ccc3[nH]c(=O)[nH]c3c2)cc1)N1CCCC(C(F)(F)F)C1 (stereo not drawn),14%
11,COc1ccc(S(=O)(=O)NC2CCSc3ccccc32)cc1OC (stereo not drawn),-38.8%
12,Cc1ccc(SCC(=O)NC(=O)c2ccc(S(=O)(=O)N(C)C)cc2)cc1C,-23.8%
13,N#Cc1nc(COc2ccc(F)cc2)oc1NCCCn1ccnc1,-64.2%
14,COC(=O)Nc1ccc(S(=O)(=O)N2CCN(c3ccc(F)cc3)CC2)cc1,1.63%
15,COc1ccccc1CC(NC(C)=O)C(=O)N1CCN(C(=O)Nc2ccccc2Cl)CC1 (stereo not drawn),11.8%
16,COc1ccccc1N(CC(=O)N/N=C(\C)c1ccccc1O)S(=O)(=O)c1ccc(C)cc1,12.6%
17,O=C(COc1cccc(F)c1)Nc1nc(-c2cccnc2)cs1,11.5%
18,COc1ccc(NC(=O)Nc2ccc(Cc3ccncc3)cc2)c(OC)c1,-18.2%
19,C#CCOc1ccc(C2C3=C(CC(C)(C)CC3=O)N(CC(=O)O)C3=C2C(=O)CC(C)(C)C3)cc1OC,17.5%
20,CC(Cc1cccc(C(F)(F)F)c1)NCCOC(=O)c1ccccc1.Cl (stereo not drawn),-34%
21,Cc1ccccc1C(=O)Oc1ccc(Sc2ccc(O)cc2)cc1,3.37%
22,CCc1cccc(CC)c1NC(=S)NCC(c1cccnc1)N1CCOCC1 (stereo not drawn),-17.2%

row,SMILES,"hERG current change (%, negative = inhibition) at 10uM"
1,Cc1ccc(Nc2nc(C)c(CCC(C)C)c(=O)[nH]2)cc1,3.72%
2,CCOC(=O)C1CCCN(C(=S)Nc2cccc(Cl)c2)C1 (stereo not drawn),-5.74%
3,CC(=Nc1ccc(F)cc1)c1c(O)n(C)c(=O)[nH]c1=O,24.4%
4,Cc1cc(Cl)ccc1OCCCC(=O)N1CCOCC1,-25%
5,COc1ccc(CCC(C)N2CCOCC2)cc1 (stereo not drawn),2.71%
6,Cc1ccc(NC(=O)CCC(=O)c2ccc(Br)cc2)cc1,8.32%
7,CCOC(=O)N1CCC(NS(=O)(=O)c2ccc(C#N)cc2)CC1,-2.64%
8,O=C(COc1ccccc1)N1CCN(c2ccc([N+](=O)[O-])c(N3CCCCC3)c2)CC1,-13.6%
9,CCOC(=O)c1c(C)[nH]c(C)c1-c1ccccc1OC,-13.4%
10,Cc1ccc(C)c(S(=O)(=O)N2CCNCC2)c1,10.4%
11,O=C(O)C1CC=CCC1C(=O)Nc1ccc(S(=O)(=O)N2CCCc3ccccc32)cc1 (stereo not drawn),8.21%
12,O=C(NCCC1CCCCN1S(=O)(=O)c1cccs1)C(=O)Nc1ccc(F)cc1F (stereo not drawn),13.9%
13,O=C(N/N=C/c1cccc(NC(=O)c2ccc(Cl)cc2)c1)c1cccc(O)c1,16.4%
14,O=C(NCCc1ccccn1)c1ccc2nc(Cc3ccccc3F)oc2c1,-2.4%
15,O=C(Cc1cccs1)Nc1ccc2c(c1)C(=O)OC2,5.08%
16,CSC1=C(C#N)C(c2ccccc2Cl)C2=C(N1)c1ccccc1C2=O (stereo not drawn),6.44%
17,CSc1ncc(CN2CCc3c([nH]c4ccccc34)C2c2cccc(O)c2)cn1 (stereo not drawn),-22.9%
18,Cc1c(N=Cc2c(O)n(Cc3ccc(F)cc3)c(=O)[nH]c2=O)c(=O)n(-c2ccccc2)n1C,-26%
19,COCCNc1nnc(SC(C)C(=O)Nc2ccc(-c3nc4ccc(C)cc4s3)cc2)s1 (stereo not drawn),13.4%
20,Cc1ccc(S(=O)(=O)NCCN2CCOCC2)cc1,0.417%
21,COc1ccc(/C=C(\C#N)C(=O)OCC(=O)NC2CC2)cc1,14.1%

# Source: publication PMC4336329 (PLoS ONE, 2015)
